# In all, about 330,000 compounds went through this assay and about 40 (0.01%) were called active. Calls come from the whole dose curve; as a rule, active = well fitted inhibition curve with a large enough effect; inconclusive = small, poorly fitted or top-dose-only effect, or effect the other way; inactive = flat fitted curve, though single readings scatter. The list shows a part of the results, in another mix than the full data.
# Target: Ubiquitin carboxyl-terminal hydrolase 2 (Homo sapiens) (UniProt O75604)
# Assay: qHTS Assay for Inhibitors of Ubiquitin-specific Protease USP2a Using CHOP2 as the Reporter
# Details: USP2 core, Ub-CHOP2 coupled fluorogenic reporter, 485/531; series mostly up to 38.3 µM; activity change, negative = inhibition: at the top concentration
# Excerpt: NIH Molecular Libraries Screening Centers Network [MLSCN] NIH Chemical Genomics Center [NCGC] MLSCN Grant: XO1-MH079852-01 PI Name: Nicholson, Ben. Progenra Inc, Malvern, PA NCGC Assay Overview: Homeostasis of cellular proteins is maintained through a combination of synthesis and degradation. The pathway that accounts for the majority of protein degradation is the ubiquitin-proteasomal pathway. Ubiquitin (Ub) is highly conserved in all cells and the generation of a multi-Ub chain typically targets proteins for degradation by the proteasome. However, ubiquitination is highly reversible and dynamic. Deubiquitination, the reverse process, is catalyzed through the action of enzymes referred to as isopeptidases or deubiquitinating enzymes (DUBs). This group of enzymes is collectively responsible for maintaining adequate pools of free ubiquitin and regulating the ubiquitination status of cellular proteins. The class of DUBs referred to as the ubiquitin-specific proteases (USP) family functions endoproteolytically to cleave Ub chains from a wide range of protein substrates. USP2a deubiquitinates fatty acid synthase (FASN) which has recently been identified as an emerging oncology target. To identify inhibitors of USP2a a cell-free assay was employed. […] The reporter enzyme chosen is an enterokinase called CHOP2, which is activated when the Ub is cleaved by USP2. The free and now activated reporter can subsequently act on its reporter substrate. Thus, this coupled assay gives a fluorescent read-out at excitation/emission wavelengths of 485/531. The assay was developed by Progenra, Inc. and has been licensed for sale by LifeSensors, Inc. as Ub-CHOP2-Reporter-Kit (#PR1101).
# NCGC Assay Protocol Summary: The assay buffer, prepared fresh at the day of the assay, contains 20mM Tris-HCl pH 8.0, 2mM CaCl2, 2mM beta-Mercaptoethanol, 0.05% CHAPS. 3ul of 20nM (10nM final) USP2 core, which is stored on ice, is dispensed into a medium-binding black solid Kalypsys 1,536 well plate using the Kalypsys dispenser. The assay plate is then pinned with 23nL compound with the Kalypsys pintool in columns 5-48. The controls are pinned as follows: column 1 two-fold dilutions of 2M NEM in duplicate; column 2 2M NEM (final concentration 38.2mM); column 3&4 DMSO. The assay plate is incubated at RT for 30min. Subsequently, 1.5uL of 100nM (25nM final) Ub-CHOP2 and 1.5uL of 100nM (25nM final) Reporter Substrate (both stored on ice and protected from light) were dispensed into the plate using the Kalypsys dispenser. Plates were read after 60min RT incubation on a ViewLux (Perkin Elmer) plate reader using the following wavelengths Ex 485nm /Em 531nm. Data were normalized to the to AC100 inhibition (NEM). Concentration-response curves were fitted to the normalized data and the concentration-response curves were then classified based on curve quality (r2), response magnitude and degree of measured activity. The time zero reading was used to flag fluorescence artifacts. Keywords: ubiquitination, deubiquitination, proteases, profluorescent, MLSMR, MLPCN, NIH Roadmap, qHTS, NCGC
# Potency is the fitted concentration of half-maximal effect.
# Sequence of UniProt O75604 (O75604 whole entry, looked up): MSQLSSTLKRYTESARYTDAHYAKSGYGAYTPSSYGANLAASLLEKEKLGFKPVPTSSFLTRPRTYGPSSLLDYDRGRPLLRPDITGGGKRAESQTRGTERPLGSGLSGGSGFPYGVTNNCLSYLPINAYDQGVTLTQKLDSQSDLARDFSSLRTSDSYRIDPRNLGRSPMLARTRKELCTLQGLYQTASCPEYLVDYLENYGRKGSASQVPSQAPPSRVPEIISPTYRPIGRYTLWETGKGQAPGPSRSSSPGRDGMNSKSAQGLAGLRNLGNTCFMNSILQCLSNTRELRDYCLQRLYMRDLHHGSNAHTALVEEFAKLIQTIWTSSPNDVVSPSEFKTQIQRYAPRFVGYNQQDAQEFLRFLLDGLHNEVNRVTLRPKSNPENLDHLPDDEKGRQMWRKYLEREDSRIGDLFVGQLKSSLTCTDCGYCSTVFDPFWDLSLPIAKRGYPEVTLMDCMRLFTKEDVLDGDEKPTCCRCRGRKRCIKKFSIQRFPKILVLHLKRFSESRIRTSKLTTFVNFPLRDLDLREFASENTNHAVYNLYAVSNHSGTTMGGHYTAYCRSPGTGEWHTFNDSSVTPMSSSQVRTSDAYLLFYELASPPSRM
Compound,"activity change, negative = inhibition",Potency
O=C1OC[C@@H]2CCCN2C(=O)[C@@H](CC(=O)N(CCO)Cc2ccccc2)C/C=C\C[C@H]1Cc1ccc(F)cc1,inactive: -1.12%,
COC(=O)C1=C(C)N(Cc2ccccc2)C(=NCCc2c[nH]c3ccccc23)N[C@H]1c1ccccc1,inactive: 3.86%,
O=C(OC[C@H]1O[C@@H](OC(=O)c2cc(O)c(O)c(OC(=O)c3cc(O)c(O)c(O)c3)c2)[C@H](OC(=O)c2cc(O)c(O)c(OC(=O)c3cc(O)c(O)c(O)c3)c2)[C@@H](OC(=O)c2cc(O)c(O)c(OC(=O)c3cc(O)c(O)c(O)c3)c2)[C@@H]1OC(=O)c1cc(O)c(O)c(OC(=O)c2cc(O)c(O)c(O)c2)c1)c1cc(O)c(O)c(OC(=O)c2cc(O)c(O)c(O)c2)c1,,active: 5.01 µM
COc1ccc(-c2csc(N3CCN(C(=O)c4ccco4)CC3)n2)cc1,,active: 11.2 µM
C=CC[C@@H](CC(=O)N[C@@H](CO)Cc1ccccc1)C(=O)N[C@@H](COC(=O)[C@H](CC=C)CC(=O)OC(C)(C)C)Cc1c[nH]c2ccccc12,inactive: -0.524%,
N[C@@H](Cc1cc(I)c(Oc2ccc(O)c(I)c2)c(I)c1)C(=O)O,inactive: 0.705%,
NC(=NCCCCCCN=C(N)/N=C(\N)Nc1ccc(Cl)cc1)/N=C(\N)Nc1ccc(Cl)cc1,,inactive
Cc1c(N=C/C=C2/N(C)c3ccccc3C2(C)C)c(=O)n(-c2ccccc2)n1C,inactive: 2.29%,
C=CC[C@@H](CC(=O)N[C@H](CO)Cc1ccccc1)C(=O)N[C@@H](COC(=O)[C@@H](CC=C)CC(=O)OC(C)(C)C)Cc1c[nH]c2ccccc12,inactive: 1.96%,
C[c-]1[c-](C)[c-](C)[c-](C)[c-]1C.[Fe].c1cc2nccc(N3CCCC3)[c-]2c1 (centres undefined),inactive: 3.87%,
O=C1OC[C@H]2CCCN2C(=O)[C@@H](CC(=O)N(CCO)Cc2ccccc2)C/C=C\C[C@H]1Cc1ccc(F)cc1,inactive: -9.19%,
O=C1OC[C@H]2CCCN2C(=O)[C@@H](CC(=O)N(CCO)Cc2ccccc2)C/C=C\C[C@@H]1Cc1ccc(F)cc1,inactive: 0.284%,
CC(C)(C)OC(=O)C[C@@H]1C/C=C\C[C@H](CC(=O)N(CCO)Cc2ccccc2)C(=O)NC[C@@H](c2ccccc2)OC1=O,inactive: 0.665%,
C=CC[C@@H](CC(=O)N[C@@H](CO)Cc1ccccc1)C(=O)N[C@H](COC(=O)[C@@H](CC=C)CC(=O)OC(C)(C)C)Cc1c[nH]c2ccccc12,inactive: 2.16%,
Cc1ccc(NC(=O)CN2C(=O)N/C(=C\c3ccco3)C2=O)cc1,inactive: -0.309%,
O=C(/C=C/c1ccc(O)c(O)c1)OC(Cc1ccc(O)c(O)c1)C(=O)O (centres undefined),inactive: 2.7%,
C#CCOCCOCCOCCNc1nc(N2CCN(C(=O)CCCCCCCCCCNC(=O)[C@H](CCCN=C(N)N)n3cc(C[C@@H](C)CC)nn3)CC2)nc(N2CCN(C(=O)CCCCCCCCCCNC(=O)[C@@H]([C@H](C)CC)n3cc(CCCCCN)nn3)CC2)n1,,active: 10 µM
O=C1NC[C@H](c2ccccc2)OC(=O)[C@@H](Cc2ccc(F)cc2)CC/C=C/C[C@@H]1CC(=O)N(CCO)Cc1ccccc1,inactive: -4.87%,
O=C(N/C(=C\c1cccnc1)C(=O)N1CCOCC1)c1ccco1,inactive: 2.26%,
C=CC[C@H](CC(=O)OC(C)(C)C)C(=O)OC[C@@H]1CCCN1C(=O)[C@@H](CC=C)CC(=O)N[C@H](CO)Cc1ccccc1,inactive: 2.57%,
CC(C)(C)OC(=O)C[C@@H]1C/C=C\C[C@@H](CC(=O)N(CCO)Cc2ccccc2)C(=O)NC[C@H](c2ccccc2)OC1=O,inactive: 6.52%,
CCCCc1ccc(/C=C2\C(=O)ON=C2c2ccccc2)s1,inactive: 1.57%,
CC(C)(C)OC(=O)C[C@@H]1C/C=C\C[C@H](CC(=O)N(CCO)Cc2ccccc2)C(=O)NC[C@H](c2ccccc2)OC1=O,inactive: 2.9%,
O=C1NC[C@@H](c2ccccc2)OC(=O)[C@H](Cc2ccc(F)cc2)CC/C=C/C[C@H]1CC(=O)N(CCO)Cc1ccccc1,inactive: -0.544%,
CCCOC(=O)CCCC[C@H]1SC[C@@H](NC(=O)OC)[C@H]1NC(=O)OC,inactive: 0.105%,
O=C(Nc1cccc(C(F)(F)F)c1)/C(=C/c1ccco1)NC(=O)c1cccs1,inactive: -0.194%,
CC(C)(C)OC(=O)C[C@H]1C/C=C\C[C@@H](CC(=O)N(CCO)Cc2ccccc2)C(=O)NC[C@@H](c2ccccc2)OC1=O,inactive: -0.498%,

Compound,"activity change, negative = inhibition",Potency
C=CC[C@H](CC(=O)N(CCO)Cc1ccccc1)C(=O)NCCOC(=O)[C@@H](CC=C)CC(=O)OC(C)(C)C,inactive: 3.83%,
C#CCOCCOCCOCCNc1nc(N2CCN(C(=O)CCCCCCCCCCNC(=O)[C@H](CCCCN)n3cc(C)nn3)CC2)nc(N2CCN(C(=O)CCCCCCCCCCNC(=O)[C@H](CCCN=C(N)N)n3cc(C[C@@H](C)CC)nn3)CC2)n1,,active: 11.2 µM
O=C1OC[C@@H]2CCCN2C(=O)[C@H](CC(=O)N(CCO)Cc2ccccc2)C/C=C\C[C@H]1Cc1ccc(F)cc1,inactive: 3.7%,
CC(C)(C)OC(=O)C[C@@H]1C/C=C\C[C@@H](CC(=O)N(CCO)Cc2ccccc2)C(=O)NC[C@@H](c2ccccc2)OC1=O,inactive: 3.41%,
N=C1C(c2nc3ccccc3c(=O)[nH]2)=C(O)CN1CCc1ccccc1,,active: 0.794 µM
O=C1NC[C@@H](c2ccccc2)OC(=O)[C@@H](Cc2ccc(F)cc2)CC/C=C/C[C@H]1CC(=O)N(CCO)Cc1ccccc1,inactive: -20%,
C=CC[C@@H](CC(=O)N[C@@H](CO)Cc1ccccc1)C(=O)N[C@@H](COC(=O)[C@@H](CC=C)CC(=O)OC(C)(C)C)Cc1c[nH]c2ccccc12,inactive: -3.28%,
C=CC[C@@H](CC(=O)N[C@@H](CO)Cc1ccccc1)C(=O)N[C@H](COC(=O)[C@H](CC=C)CC(=O)OC(C)(C)C)Cc1c[nH]c2ccccc12,inactive: 0.66%,
CC(C)NC(=O)/C(C#N)=C\c1ccc(N(C)C)o1,inactive: 1.54%,
CC(C)c1ccc2c(c1)c(SC(C)(C)C)c(CC(C)(C)C(=O)O)n2Cc1ccc(Cl)cc1,inactive: 6.08%,
C=CC[C@H](CC(=O)N(CCO)Cc1ccccc1)C(=O)N[C@@H](C)COC(=O)[C@H](CC=C)CC(=O)OC(C)(C)C,inactive: 3.69%,
C#CCOCCOCCOCCNc1nc(N2CCN(C(=O)CCCCCCCCCCNC(=O)[C@H]([C@@H](C)CC)n3cc(CCCCN=C(N)N)nn3)CC2)nc(N2CCN(C(=O)CCCCCCCCCCNC(=O)[C@H](CCCN=C(N)N)n3cc(C[C@@H](C)CC)nn3)CC2)n1,,active: 11.2 µM
C=CC[C@H](CC(=O)N[C@H](CO)Cc1ccccc1)C(=O)N[C@@H](COC(=O)[C@H](CC=C)CC(=O)OC(C)(C)C)Cc1c[nH]c2ccccc12,inactive: 4.12%,
CCO[C@@H]1OC(C(=O)N2CCCCCCC2)=C[C@H](c2ccc(C(F)(F)F)cc2)[C@H]1CCCO,inactive: 0.576%,
O=C1NC[C@H](c2ccccc2)OC(=O)[C@H](Cc2ccc(F)cc2)CC/C=C/C[C@H]1CC(=O)N(CCO)Cc1ccccc1,inactive: -5.22%,
C=CC[C@@H](CC(=O)OC(C)(C)C)C(=O)OC[C@@H]1CCCN1C(=O)[C@@H](CC=C)CC(=O)N[C@@H](CO)Cc1ccccc1,inactive: -1.71%,
CC(C)(C)OC(=O)C[C@H]1C/C=C\C[C@@H](CC(=O)N(CCO)Cc2ccccc2)C(=O)NC[C@H](c2ccccc2)OC1=O,inactive: 5.47%,
Cc1ccc(S(=O)(=O)N2[C@@H](c3ccccc3F)C(C(=O)O)=CC[C@H]2c2ccc(Cl)c(Cl)c2)cc1,,active: 11.2 µM
C=CC[C@@H](CC(=O)OC(C)(C)C)C(=O)OC[C@@H]1CCCN1C(=O)[C@@H](CC=C)CC(=O)N[C@H](CO)Cc1ccccc1,inactive: -0.177%,
C=CC[C@@H](CC(=O)N(CCO)Cc1ccccc1)C(=O)N[C@@H](C)COC(=O)[C@@H](CC=C)CC(=O)OC(C)(C)C,inactive: 1.23%,
C=CC[C@H](CC(=O)N[C@H](CO)Cc1ccccc1)C(=O)N[C@H](COC(=O)[C@H](CC=C)CC(=O)OC(C)(C)C)Cc1c[nH]c2ccccc12,inactive: 0.946%,
O=C1NC[C@H](c2ccccc2)OC(=O)[C@@H](Cc2ccc(F)cc2)CC/C=C/C[C@H]1CC(=O)N(CCO)Cc1ccccc1,inactive: -4.91%,
C=CC[C@@H](CC(=O)OC(C)(C)C)C(=O)OC[C@H]1CCCN1C(=O)[C@@H](CC=C)CC(=O)N[C@H](CO)Cc1ccccc1,inactive: -0.984%,
O=C1NC[C@H](c2ccccc2)OC(=O)[C@H](Cc2ccc(F)cc2)CC/C=C/C[C@@H]1CC(=O)N(CCO)Cc1ccccc1,inactive: -14.1%,
C=CC[C@@H](CC(=O)N[C@H](CO)Cc1ccccc1)C(=O)N[C@H](COC(=O)[C@@H](CC=C)CC(=O)OC(C)(C)C)Cc1c[nH]c2ccccc12,inactive: 1.56%,
C=CC[C@H](CC(=O)N(CCO)Cc1ccccc1)C(=O)NCCOC(=O)[C@H](CC=C)CC(=O)OC(C)(C)C,inactive: 1.07%,
O=[N+]([O-])/C(C(Cl)=C(Cl)Cl)=C(/Sc1ccccc1)N1CCCCC1,inactive: 0.0212%,
